Reference: paper PMC10668032
The other results are listed elsewhere or left out. At the low end of the ranking the order means little.

Target: SIX1 homeodomain (reference allele) (UniProt Q15475)
Assay: universal protein binding microarray
Details: Universal all-10-mer PBM (8x60K, AMADID 030236), 300 nM GST-tagged protein, Alexa Fluor 488 anti-GST; buffer, salt, pH and temperature not stated; high values mean tight binding; most listed sequences are background and not binding sites; double strand, one strand shown

Sequence | binding signal [E-score]
CGTAGTAA | -0.1
CACCTACC | -0.14
CACACGGA | 0.141
CGCCATCC | 0.0833
ACGTCGTA | -0.0201
GATTACGC | 0.225
ATATCGAA | 0.393
CCAAGGGC | -0.287
CCAGCACG | -0.0508
ACCTGGGC | -0.0576
ATTGAGCC | 0.114
ATTATGTA | 0.122
TGGCAAAA | -0.23
ATCGGCGG | 0.231
CTCTCTTA | -0.155
CGGACCAA | -0.151
GCCGAGCC | -0.099
GGTCGTAA | -0.0305
ACTCGGCC | -0.27
CGAACGGC | -0.192
CCGTGATC | 0.364
CGTCGCGA | -0.068
CGCTACTA | -0.0218
ACTCGCAT | 0.0845
CACGGCGG | -0.0638

Sequence | binding signal [E-score]
GGCCGCAA | -0.151
GAGTACAC | 0.107
AGGTAAGC | -0.274
ATCTCCAG | 0.194
AGAGCGTC | -0.333
AACTCTCT | -0.286
AAACCAAT | 0.102
AGGGCTCC | -0.238
ACTTTCTA | -0.152
ACCAGTAT | 0.24
AGTATGTC | -0.119
GATGATTA | 0.0465
CGTACCCC | 0.229
AAGTCAAC | -0.218
ACGTGACC | -0.268
GCTAAGTA | 0.0679
ACGTTTCC | -0.28
AGAGCAAA | -0.331
GGTACATA | 0.0662
CATTGCAG | 0.00213
ACCGCAGA | -0.0163
CGCTCCAG | -0.0141
CGAGAAAC | -0.146
CTCGTGTC | 0.0485
ATATCGGG | 0.402

Sequence | binding signal [E-score]
CGGGACAA | -0.215
ACTGACCA | -0.209
AGATCGAT | 0.345
GCGTTCCA | -0.0423
TCCAGTAA | -0.193
AGTTTGGC | -0.259
CGGAACTA | -0.0419
ATTTTTTA | -0.0919
AATGCTCT | -0.211
TGGTTAAA | -0.192
CATAAATC | 0.0731
AATGGAGG | 0.0725
CAAGTACG | -0.315
GACTCTCC | -0.214
ACTAGTAT | 0.249
AAAAGCTT | -0.316
CACTTGCA | 0.00783
ACTCAGTA | 0.0393
ACATCGTC | -0.0176
GAGGTGCA | -0.0517
AACACTAA | -0.0968
CGAAACTC | -0.195
CGCGAACG | -0.0749
CACCAGAA | 0.0307
AGCTGTAG | -0.0569

Sequence | binding signal [E-score]
AGAAAGTG | -0.292
CCAACAAA | -0.106
CGGTATTA | 0.368
ACATCTCG | 0.0625
ATGGCACC | 0.039
CATTCGGG | 0.0654
ACCACTAA | -0.112
GAAATTGA | -0.0883
ACCTTTAC | -0.119
ATAATTTA | -0.101
ACAGTTTC | -0.101
AGCCCGAA | -0.192
CTGATAGC | 0.319
AGCTTGTA | -0.106
CAGACACG | -0.111
CCACTGAC | -0.0811
AATTCACT | -0.294
ACGCCCTG | -0.0671
ATGTCAAG | -0.156
AATTTAGC | -0.139
AAATTCTC | -0.218
AAGTCGGG | -0.0961
CGCAAGCC | -0.138
GAGCGTCC | -0.204
AAAGGCTC | 0.0411

Sequence | binding signal [E-score]
GAGGAACC | -0.132
ACTTAAGA | -0.0132
AGGTCCAG | -0.127
AGCCCGAC | -0.226
CCTTGATC | 0.243
GTTGTCTA | -0.122
AAAAGTAG | -0.0853
GGGATACA | 0.383
AAGACCAA | -0.194
CTTGTGAA | -0.21
AGACATCG | -0.0476
GTCTACCA | 0.0725
AAACTGCT | -0.168
CGTACGAG | -0.244
ATATGCTG | 0.213
CGTTGTAC | -0.115
AATATAAT | 0.0774
AGAGTAGG | 0.148
GAAAATTC | -0.235
CTTTCGAA | -0.252
AGTAGAGG | -0.126
GATGCGAC | 0.139
AGGGAGTC | -0.127
CCCTCCTA | 0.0145
GCTGGGTA | 0.239

Sequence | binding signal [E-score]
GCGAGTCC | -0.21
CAAGTATC | 0.378
AGACTGTC | -0.211
ATGCTGTC | -0.0494
CACATAAA | -0.0841
ATCCGTTG | 0.285
CTGGCTAA | -0.101
CTTTGATC | 0.213
ATACCCAC | 0.392
TAAGATCA | 0.293
GGTTTCTA | 0.143
CATCATTA | 0.0734
AACCTCGT | 0.0559
ATCCACTC | 0.234
CGGATATA | 0.422
AACCGTTC | -0.109
AACGTTAG | -0.243
AGGAATCA | -0.0636
ACAAACCG | 0.0182
TACCTGAA | 0.0348
GAAGACGC | -0.146
ACACAAGA | -0.114
CCCCGCCG | 0.257
CAAATTTA | -0.209
CGTGCCTA | -0.28

Sequence | binding signal [E-score]
TACGGGGA | -0.0279
CCTCTCCA | -0.0391
ATGGGTTG | -0.0621
CTGATCCC | 0.416
CTCTTTTA | -0.189
CGTGCTCA | 0.0135
AGACCCAA | -0.225
GTAGAACA | -0.0637
ACCTGAGA | 0.158
AGTACTGG | -0.153
GTCCAAAC | -0.317
CTTGAAAA | -0.242
AGTAGAAA | -0.0482
TACCCAAA | -0.00297
CCAGCCCC | -0.0655
AACGACTG | -0.169
CACTTAGC | -0.173
CGGCACGA | 0.143
AGGCCATC | -0.115
CGGGCATA | 0.108
ATTTCTTA | -0.051
ACATGCTC | -0.249
